In the supplement of paper PMC10986608 one finds growth data, which are given here for 84 compounds.

The other results are listed elsewhere or left out. Repeats are few or missing, and single values can be far off.

For the assay, the system named is Candida albicans DPL-15. Put plainly: growth (OD600) after compound treatment (apparently relative to screen median) (relative growth (fraction; screen median 1.02)); DPL-15 is a caspofungin-resistant clinical isolate; higher = more fungal growth (less antifungal activity). As to conditions: 25 µM; RPMI 1640; 48 h; 30 °C.
With `C=CCN1C(=O)C2=C(C(CC(C)C)=NCC(C)(C)N2)C1c1ccc(F)cc1` (centres undefined), the growth was 1.31.
With `CC1=Cc2cc(O[Si](C(C)C)(C(C)C)C(C)C)ccc2[C@@H]2C=C(C)C(=O)[C@H]2C1` the figure was 1; with `COc1ccc(F)cc1C1NC(=O)N2CCC=CC2=C1C(C)=O` (centres undefined), 0.905; with `Cc1cc2c(c(=O)o1)[C@@]1(C(=O)N(C)c3c(Br)cccc31)C1=C(CCCC1=O)O2`, 1.
`C[C@H]1CC[C@H]2C(=O)N(Cc3ccc(Cl)cc3)C[C@H](O)CN2[C@@H]1c1cccc(Br)c1`: the growth worked out at 1.09.
Next, `CC(=O)OC[C@H]1O[C@H](C#Cc2cccc(OC34CC5C[C@H](C3)C[C@@H](C5)C4)c2)C=C[C@H]1OC(C)=O`: 1.07; `COc1cc(CC=C(C)C)c2c(=O)c3c(oc2c1O)CCCC3`: 1.14.
With `CC(=O)C1=C2C=CCCN2C(=O)NC1c1ccc2c(c1)OCO2` (centres undefined) the figure was 0.885; with `CC(C)(C)NS(=O)(=O)O[C@@H]1C[C@@H]2CC[C@@]1(C)C2(C)C`, 1.1.
With `COc1cc(OC)c2c(c1)OC(Cc1cccc(-c3ccccc3)c1)(c1ccc(Br)cc1)C2=O` (centres undefined) the figure was 0.968; with `Cc1nn(C)c2c1C(c1ccc3c(c1)OCO3)N(c1ccccc1)C2=O` (centres undefined), 1.07; with `COC(=O)C1=C(C)N(Cc2ccccc2)C(NCc2ccc(OC)cc2)=NC1c1cccc(F)c1` (centres undefined), 1.07.
Consider `C=CCCCCc1cccc(-c2cccs2)n1`, for which the growth worked out at 1.08.
For the compound `COC(=O)[C@H]1C(=O)[C@@]2(NCCN(C)C)c3c(OC)cc(OC)cc3O[C@@]2(c2ccc(OC)cc2)[C@@H]1c1ccccc1`, the growth stood at 1.82.
`CC(=O)C1=C(C)N(Cc2cccc(Cl)c2)C(=S)NC1c1cccc(Cl)c1` (centres undefined): the growth amounted to 0.929.
Next, `COc1ccc2c(c1)[C@@]1(CC(C)=C[C@H](COc3cccc(F)c3)O1)C(=O)N2`: 0.886; `O=S(=O)(c1ccccc1)N1CCCc2nc(-c3ccccc3)ccc21`: 0.965.
With `C/C=C/C1CC(=O)c2c(O)c(C)c(O)c(C)c2O1` (centres undefined) the figure was 0.852.
Next, `COC(=O)C1=C(C)N(C)C(NCc2ccccc2C(F)(F)F)=NC1c1ccc(Cl)cc1` (centres undefined): 0.997; `COC(=O)[C@@]12Oc3ccc(-c4cnn(C5CCNCC5)c4)c(O)c3C(=O)C1=C(N)C[C@H](C)[C@H]2O`: 1.14; `Cn1nccc1Nc1cc(O)cc(O)c1C(=O)N1CC[C@@H](F)C1`: 1.04.
On to `CO[C@@H]1[C@H](O)CC[C@]2(O)CN(c3cccnc3)[C@](C)([C@H](O)CC=C(C)C)[C@@H]12`, for which the growth was found to be 0.888.
With `CCCN1C(NCc2ccc(C(F)(F)F)cc2)=NC(c2ccc(F)cc2)C(C(=O)OC)=C1C` (centres undefined) the figure was 1.02; with `CC(C)Cc1nn(C)c2c1C(c1ccccc1)N(Cc1ccccc1)C2=O` (centres undefined), 0.928; with `COc1ccc(N2C(=O)C3=C(C(C(C)C)=NCC(C)(C)N3)C2c2ccc(F)cc2)cc1` (centres undefined), 1.09.
Next, `COC(=O)C1=C(C)N(Cc2cccc(C(F)(F)F)c2)C(=S)NC1c1cccc(Br)c1` (centres undefined): 0.894; `CC(=O)C1=C2C=CCCN2C(=O)NC1c1cc(F)cc(Cl)c1` (centres undefined): 0.912.
With `COC(=O)C1=C(C(=O)OC)[C@@H](c2ccc(F)cc2)O[C@H]1c1ccc(F)cc1` the figure was 1.13.
With `CC#CCN1C(=O)NC(c2ccccc2)C(C(=O)OC)=C1CC` (centres undefined), the growth was 1.12.
Next, `COC(=O)C1=C(C)N(Cc2cccc(C(F)(F)F)c2)C(NCC(C)C)=NC1c1ccc(Cl)cc1` (centres undefined): 0.93.
With `C=CCN1C(=O)C2=C(C(C)=NCCN2)C1c1ccc2c(c1)OCO2` (centres undefined) the figure was 1.1; with `C#CCN(C)C(=O)c1nnc(C(C)=O)c2c3ccccc3n(S(=O)(=O)c3ccccc3)c12`, 0.969; with `COc1ccccc1N1C(=O)c2[nH]nc(CC(C)C)c2C1c1cccc(Cl)c1` (centres undefined), 0.962.
Next, `Cc1nn(-c2ccccc2)c2c1C(c1cccc(C(F)(F)F)c1)NC2=O` (centres undefined): 1.04; `O=C([O-])COc1ccccc1[N+](=O)[O-]`: 1.21; `COc1cc(CC=C(C)C)c2c(=O)cc(-c3ccccc3)oc2c1O`: 1.09.
Take `O=C1C=C(Br)C2(OCCCO2)[C@@H]2O[C@H]12`: the growth is 0.988.
With `COc1ccc(N2C(=O)c3c(c(CC(C)C)nn3C)C2c2ccc3c(c2)OCO3)cc1` (centres undefined) the figure was 0.917.
`O=c1c2ccccc2oc2cc(CO)c(I)c(O)c12`: the growth turned out to be 0.77.
On to `CC(CCOS(=O)(=O)NC(C)(C)C)CC(C)(C)C` (centres undefined), for which the growth stood at 0.943.
With `C=CC[C@]12C[C@@]3(O[C@H](C(C)(C)C)N=C3C[C@H](c3ccc(OC)cc3)[C@H]1C)N(Cc1ccncc1)C2=O` the figure was 0.948; with `COc1ccc([C@@]23Oc4cc(OC)cc(OC)c4[C@]2(O)[C@H](O)[C@H](C(=O)N(C)OC)[C@H]3c2ccco2)cc1`, 1.09.
In the case of `Cn1nc(C2CCCCC2)cc1N`, the growth came to 0.968.
For the compound `Cc1cc(O)c2c3c4c(cc(O)c13)O[C@@]1(C)OCC[C@H]1[C@H]4OC2=O`, the growth was 1.11.
For the compound `Cc1cc(O)c2c3c4c(cc(O)c13)O[C@@]1(c3ccccc3)OCC[C@H]1[C@H]4OC2=O`, the growth was found to be 0.955.
Consider `CCN(CC)CCCNC1=NC(c2ccc(Cl)cc2)C(C(=O)OC)=C(C)N1Cc1ccc(C(F)(F)F)cc1` (centres undefined), for which the growth was 1.01.
As for `CC(C)Cc1n[nH]c2c1C(c1cccc(C(F)(F)F)c1)N(c1ccccc1)C2=O` (centres undefined), the growth is 0.896.
Regarding `COC(=O)C1=C(C)N(Cc2ccc(F)cc2)C(=S)NC1c1ccc(F)cc1` (centres undefined), the growth was 0.978.
Next, `CC(C)(C)NS(=O)(=O)OCCCCc1ccccc1`: 1.06; `COc1ccc(N2C(=O)c3c(c(-c4ccccc4)nn3C)C2c2ccc(C)cc2)cc1` (centres undefined): 0.917; `COC(=O)Cc1nnn2c1[C@@H](C)[C@@H](c1ccccc1Br)OC[C@@H]2c1ccccc1`: 1.05.
As to `COC(=O)C1=C(C)N(CC(C)C)C(=S)NC1c1ccccc1` (centres undefined), the growth was determined as 0.985.
With `COC(=O)Cc1nnn2c1[C@H](C)[C@@H](OC)c1cc(Br)ccc1-2` the figure was 1.05; with `C=C(C)CC1=C(Br)CCC1=O`, 1.13.
Consider `O=C1C(Nc2ccccc2)=CC(c2ccc(C(F)(F)F)cc2)N1c1ccc(F)cc1` (centres undefined), for which the growth is 1.02.
Next, `CC(=O)OC[C@H]1O[C@H](c2ccc(C(C)=O)cc2)C=C[C@H]1OC(C)=O`: 1.06; `COC(=O)C1=C(C)NC(=O)NC1c1ccccc1` (centres undefined): 0.869.
For `C#CCOC[C@@H](NC(=O)[C@@H]1C[C@@H](O)CN1C(=O)OCC1c2ccccc2-c2ccccc21)c1ccccc1`, the growth is 1.09.
Next, `COc1ccc(S(=O)(=O)N2CCCc3nc(C)c(C)cc32)cc1`: 0.966; `CC1Cc2nc(-c3ccccc3)c(-c3ccccc3)cc2CN1Cc1ccccc1` (centres undefined): 1.53.
With `C(#Cc1c(-c2ccccc2)nnn1Cc1ccccc1)c1ccccc1`, the growth was found to be 1.09.
Consider `CC(=O)N[C@H]1CCN(C(=O)c2c(O)cc(O)cc2Nc2ccnn2C)C1`, for which the growth came to 1.09.
With `CC(=O)[C@H]1[C@H](CCc2ccccc2)NC(=O)N(Cc2ccccc2)[C@@H]1C` the figure was 0.94; with `CC1=NCCNC2=C1C(c1ccc(Br)cc1)NC2=O` (centres undefined), 1.02.
With `Cc1ccc(S(=O)(=O)N/N=C/c2cccc(C(=O)NCC(O)C(=O)O)c2)cc1` (centres undefined) the figure was 1.24; with `CC[C@@H](O)COc1cc2c(cc1C1(c3cc4c(cc3OC[C@H](O)CC)OCO4)C(=O)Nc3ccc(F)cc31)OCO2`, 0.982; with `CN1C(=O)[C@@]2(O[C@H]3[C@@H]4C=C[C@@H]([C@H]5C(=O)N(Cc6ccccc6)C(=O)[C@@H]45)N3C3=C2C(=O)CC3)c2ccccc21`, 1.13.
With `COc1cc2c(cc1OC)CS[C@@H]1C(=O)N(C)[C@H](SC2)C(=O)N1C` the figure was 1.06; with `COc1cc(-c2cc(OC)c(C)c(C=O)c2O)c(O)c(C=O)c1C`, 1.07; with `Cc1ccc(C2C3=C(NCCN=C3CC(C)C)C(=O)N2c2ccccc2)cc1` (centres undefined), 0.916.
`CC1=NCCNC2=C1C(c1ccccc1)NC2=O` (centres undefined): the growth was determined as 1.19.
Next, `COC(=O)c1cc(OC)c(Cl)c(OC)c1`: 1.06.
Next, `OCC1CCCN(CCc2ccccc2)C1` (centres undefined): 1.22; `O=C(O)c1cccc2c(=O)c3cccc(O)c3[nH]c12`: 1.06.
In the case of `COc1cc([C@H]2c3c(OC)c(O)c4oc5c(C)cccc5c(=O)c4c3[C@@H]3C=C(C)CC(C)(C)[C@H]23)c2c(=O)c3cccc(C)c3oc2c1O`, the growth came out at 1.08.
Next, `CCOC(=O)c1nc(C(=O)OCC)c2[nH]c(SC)nc2c1C(=O)OCC`: 0.99.
For the compound `COc1ccc(-c2ccc3c(n2)CCCN3S(=O)(=O)c2cccs2)cc1`, the growth was 0.9.
Next, `CC1=C[C@H](COc2ccc(C(C)(C)C)cc2)O[C@]2(C1)C(=O)Nc1cc(F)ccc12`: 0.971; `COC(=O)C1=C(C)N(CCCOC(C)C)C(=S)NC1c1ccccc1` (centres undefined): 1.09; `COC(=O)/C(Cc1cc(Br)c(OC)c(Br)c1)=N\O`: 1.08.
With `CC(=O)OC[C@H]1O[C@H](c2ccc(C(C)(C)C)cc2)C=C[C@@H]1OC(C)=O` the figure was 0.864; with `COC(=O)c1cc2nc(/N=C/N(C)C)nc(O)c2nc1C(=O)OC`, 0.982; with `O=C1Nc2cccc(Br)c2[C@@]12O[C@H](COc1ccccc1)CC1=CCC[C@H]12`, 0.997.
Consider `CC(=O)C1=C(C)N(Cc2ccc(Cl)cc2)C(=S)NC1c1ccccc1` (centres undefined), for which the growth came out at 0.955.
